According to PubChem BioAssay AID1347165 (National Center for Advancing Translational Sciences (NCATS), 2019):
The whole screen tested about 220,000 compounds, of which about 5,700 (2.6%) were called active. This list was built around the results that the source calls inconclusive (neither active nor inactive); the mix of calls is not that of the screen. The call rests on the fitted dose curve; in most records, active means well fitted inhibition curve with a large enough effect; inconclusive means small, poorly fitted or top-dose-only effect; inactive means no such curve, though single readings can be large or run the other way. A potency beside an inconclusive call is a rough fit, not a confirmed value.
Further: nearly all actives have a fitted effect of over 70% in size.
Potency means the concentration at half of the fitted maximal effect; tags describe the fitted curve by direction and shape.
Wherever activity change, negative = inhibition is given: 0% is about no effect.

Each compound was assayed against Lysine-specific demethylase 5B (Homo sapiens) (UniProt Q9UGL1) (assay: Primary screen for KDM5B Histone Demethylases FDH-coupled qHTS). Conditions: FDH-coupled NADH fluorescence (FDH is formaldehyde dehydrogenase); activity change, negative = inhibition: at 57.7 µM (top of the series) unless noted.
Sequence of UniProt Q9UGL1 (Q9UGL1 whole entry, looked up): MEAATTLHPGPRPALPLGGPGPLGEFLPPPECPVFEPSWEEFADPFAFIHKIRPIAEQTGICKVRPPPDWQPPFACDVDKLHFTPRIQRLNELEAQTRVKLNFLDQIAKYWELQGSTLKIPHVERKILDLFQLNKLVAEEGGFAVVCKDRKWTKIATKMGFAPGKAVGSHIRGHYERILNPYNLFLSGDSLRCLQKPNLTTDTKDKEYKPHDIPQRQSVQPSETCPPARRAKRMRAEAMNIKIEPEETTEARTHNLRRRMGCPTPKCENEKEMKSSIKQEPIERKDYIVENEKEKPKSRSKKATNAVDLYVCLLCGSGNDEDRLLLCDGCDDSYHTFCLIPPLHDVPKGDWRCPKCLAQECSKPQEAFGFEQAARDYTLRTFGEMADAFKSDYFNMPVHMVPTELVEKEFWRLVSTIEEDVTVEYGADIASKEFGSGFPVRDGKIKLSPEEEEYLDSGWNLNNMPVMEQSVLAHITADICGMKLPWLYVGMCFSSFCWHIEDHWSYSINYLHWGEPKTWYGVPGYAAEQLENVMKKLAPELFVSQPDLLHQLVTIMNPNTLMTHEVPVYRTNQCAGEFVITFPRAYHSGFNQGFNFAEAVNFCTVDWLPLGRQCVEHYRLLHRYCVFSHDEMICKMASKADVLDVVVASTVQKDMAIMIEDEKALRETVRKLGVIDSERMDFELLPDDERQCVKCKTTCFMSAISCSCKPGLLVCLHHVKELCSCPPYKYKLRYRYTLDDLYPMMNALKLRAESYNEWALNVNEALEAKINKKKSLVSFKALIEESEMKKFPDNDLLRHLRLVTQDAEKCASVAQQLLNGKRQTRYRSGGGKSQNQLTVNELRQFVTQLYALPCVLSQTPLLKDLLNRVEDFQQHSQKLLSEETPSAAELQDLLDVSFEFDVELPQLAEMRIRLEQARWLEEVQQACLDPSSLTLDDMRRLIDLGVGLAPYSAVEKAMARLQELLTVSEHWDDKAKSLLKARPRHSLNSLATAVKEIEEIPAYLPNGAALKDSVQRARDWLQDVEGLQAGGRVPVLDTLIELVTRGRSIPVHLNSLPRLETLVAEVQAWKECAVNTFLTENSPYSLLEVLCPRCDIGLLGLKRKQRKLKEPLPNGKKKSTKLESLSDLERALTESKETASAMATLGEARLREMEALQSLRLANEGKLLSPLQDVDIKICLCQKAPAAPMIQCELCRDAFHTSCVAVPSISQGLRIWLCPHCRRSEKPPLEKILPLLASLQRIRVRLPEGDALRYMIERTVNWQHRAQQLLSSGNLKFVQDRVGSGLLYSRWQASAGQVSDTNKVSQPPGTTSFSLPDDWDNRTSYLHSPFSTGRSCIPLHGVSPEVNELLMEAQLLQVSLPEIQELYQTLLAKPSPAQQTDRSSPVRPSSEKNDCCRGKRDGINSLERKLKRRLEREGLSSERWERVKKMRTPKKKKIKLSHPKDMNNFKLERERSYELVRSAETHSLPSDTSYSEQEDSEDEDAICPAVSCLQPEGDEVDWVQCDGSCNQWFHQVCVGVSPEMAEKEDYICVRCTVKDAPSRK
Procedure, shortened: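 KDM5BΔAP (200 nM final) in 50 mM HEPES pH 7.5, 0.01% Tween-20 was preincubated 10 min at RT with compound over a concentration range. Substrate mix (H3K4me3 12.5 µM, α-KG 25 µM, Fe²⁺, ascorbate, NAD⁺, FDH) was added, and NADH fluorescence change over 30 min gave dose-response curves.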
With `COc1ccc(C2=C(O)C(=O)N(Cc3ccccn3)C2c2ccccc2F)cc1` (configuration not stated) the Potency was inconclusive: 31.6 µM [inhibitor, partial curve, poor fit].
For `Cc1cc(C)c2oc(C(=O)NCC(c3ccc(C)o3)N(C)C)cc(=O)c2c1` (configuration not stated), the Potency was “inactive”.
In the case of `COC(=O)c1cc(C(C)C)sc1NC(=O)c1ccccc1Cl`, the Potency was inconclusive: 28.2 µM [inhibitor, single point].
In the case of `Cn1c(=O)c2c(ncn2CC(=O)Nc2ccc(Br)cc2)n(C)c1=O`, the Potency was “inactive”.
`Cc1ccccc1NC(=O)c1sc2nc(N3CCOCC3)c3c(c2c1N)CC(C)(C)OC3` was tested, and the Potency was inconclusive: 31.6 µM [inhibitor, partial curve, poor fit].
`CCc1ccccc1NC(=O)c1cc2c(N3CCSCC3)nc(C)cn2n1` was tested, and the Potency was active: 28.2 µM.
With `CSc1nc(N2CCOCC2)c2c(c1C#N)CC(C(C)C)OC2` (configuration not stated) the Potency was inconclusive: 39.8 µM [inhibitor, single point].
In the case of `Cc1cccc(-c2noc([C@@H]3C[C@@H](O)CN3Cc3ncc[nH]3)n2)c1`, the Potency was “inactive”.
In the case of `CCCCCC[N+](C)(C)CCSSCC[N+](C)(C)CCCCCC`, the Potency was inconclusive: 25.1 µM [inhibitor, partial curve, poor fit].
With `COC(=O)CSc1nnc2n(-c3ccccc3)c(=O)c3c4c(sc3n12)COC(C(C)C)C4` (configuration not stated) the activity change, negative = inhibition was inconclusive: -37.8% [inhibitor].
With `Cc1ccccc1Nc1nc(NC2CCCC2)nc2c1cnn2C` the Potency was “inactive”.
In the case of `CNC(=O)N1CCC(C2CCN(C(=O)CCC3CCCC3)C2)CC1` (configuration not stated), the Potency was “inactive”.
`COc1cc(CCC(=O)OCC(=O)c2ccc(Cl)cc2)cc(OC)c1OC` was tested, and the Potency was “inactive”.
`Cc1cc(C(=O)Cn2c(Cl)nc3c2c(=O)n(C)c(=O)n3C)c(C)n1C1CC1` was tested, and the Potency was “inactive”.
In the case of `Cc1cccc(N2CCN(C(=O)C3CCN(S(=O)(=O)c4ccc5c(c4)oc(=O)n5C)CC3)CC2)c1C`, the activity change, negative = inhibition was inconclusive: -31% [inhibitor].
For `Cc1ccc(C(=O)NC2CCN(c3cc(-c4cccs4)[nH]n3)CC2)c(C)c1`, the Potency was inconclusive: 17.8 µM [inhibitor, partial curve].
With `O=S(=O)(N1CC=C(c2c[nH]c3cc(F)ccc23)CC1)N1CCCCCC1` the Potency was inconclusive: 22.4 µM [inhibitor, single point].
With `N#Cc1nc(COc2ccc(Br)cc2)oc1NC1CC1` the Potency was inconclusive: 31.6 µM [inhibitor, single point].
With `CN(C)c1ccc(C(C(=O)NCc2ccccc2)N(Cc2ccco2)C(=O)c2snc(C(N)=O)c2N)cc1` (configuration not stated) the Potency was inconclusive: 25.1 µM [inhibitor, partial curve, poor fit].
With `O=C(Nc1nc(-c2ccc(Br)cc2)ns1)c1ccccc1F` the Potency was inconclusive: 22.4 µM [inhibitor, partial curve, poor fit].
For `Cn1ncc(S(=O)(=O)Cc2ccccc2)c(Cl)c1=O`, the Potency was inconclusive: 2.24 µM [inhibitor, full curve, poor fit].
`O=C(O)CCc1cc2n(n1)CCCN(C(=O)c1cc3c([nH]c1=O)CCC3)C2` was tested, and the Potency was active: 28.2 µM.
In the case of `CC1(CCCCN2CCOCC2)COc2ccc(C(=O)Nc3ccccc3)cc2N1` (configuration not stated), the Potency was inconclusive: 25.1 µM [inhibitor, partial curve, poor fit].
With `Cc1ccc(-n2ncc(C(=O)N3CCC(c4ccccc4)C3)c2C2CCN(C(=O)OC(C)(C)C)CC2)cc1` (configuration not stated) the Potency was inconclusive: 28.2 µM [inhibitor, single point].
For `CCCCOc1ccc(CNC(=O)c2ccc(NC(=O)N3CCSc4ncccc43)cc2)cc1`, the Potency was inconclusive: 28.2 µM [inhibitor, partial curve, poor fit].
`COc1ccc(-c2noc([C@@H]3CCCN3C(=O)c3ccc(N(C)C)cc3)n2)cc1OC` was tested, and the Potency was inconclusive: 35.5 µM [inhibitor, partial curve, poor fit].
`CN(C)/C=C\C(=O)c1ccc(F)cc1` was tested, and the Potency was “inactive”.
With `Cc1cc(NC(=O)c2ccc3c(c2)N(C)C2CCCCN2C3=O)ccc1Br` (configuration not stated) the Potency was inconclusive: 31.6 µM [inhibitor, partial curve, poor fit].
In the case of `CCCc1noc(-c2cccn3c(CNC(=O)c4ccc(C)cc4C)nnc23)n1`, the Potency was inconclusive: 39.8 µM [inhibitor, single point].
In the case of `CS(=O)(=O)CC(O)c1cc2n(n1)CCN(c1cncc(C(N)=O)n1)C2` (configuration not stated), the Potency was active: 25.1 µM.
For `CN1CCN([C@@H]2[C@H](O)[C@H](CO)O[C@@H]2CN(Cc2ccc(Cl)cc2)Cc2cccc(Cl)c2)CC1`, the Potency was “inactive”.
In the case of `Cc1cc(=O)oc2c(C)c(OC(C)C(=O)NCCCN(C)C)ccc12` (configuration not stated), the Potency was inconclusive: 28.2 µM [inhibitor, partial curve, poor fit].
In the case of `CC(C)c1noc(-c2cn(C3CCN(C(=O)Cc4ccc(F)cc4)C3)nn2)n1` (configuration not stated), the Potency was “inactive”.
In the case of `CCCCC(=O)Nc1cccc(-c2nc3ccccc3o2)c1C`, the Potency was “inactive”.
In the case of `Cn1nccc1OCc1cn2c(=O)n(C)cc(-c3ccccc3F)c2n1`, the Potency was inconclusive: 39.8 µM [inhibitor, partial curve, poor fit].
In the case of `CC(=O)N[C@@H]1Cc2ccccc2[C@H]1NC(=O)CN1C(=O)CNC1=O`, the Potency was “inactive”.
`Cc1ccc(C)c(N2CCN(C(=O)c3cc4c(=O)n(Cc5cccs5)ccc4nc3C)CC2)c1` was tested, and the Potency was inconclusive: 35.5 µM [inhibitor, partial curve, poor fit].
In the case of `Cc1ccc(OCCN(C)C(=O)COc2ccc3c(C)cc(=O)oc3c2)cc1`, the Potency was inconclusive: 22.4 µM [inhibitor, partial curve, poor fit].
With `CCC1=C(C(=O)OC)C(c2cccc(OC)c2OC)N2C(CC(=O)NC3CC3)=CSC2=N1` (configuration not stated) the Potency was inconclusive: 31.6 µM [inhibitor, single point].
With `COc1ccc(-c2cc3nc(C)c(CCC(=O)Nc4ccc5c(c4)OCO5)c(C)n3n2)c(OC)c1` the Potency was inconclusive: 39.8 µM [inhibitor, single point].
In the case of `O=C(NCCC1=CCCCC1)c1ccc(Cn2ccn3nc4c(c3c2=O)CCCC4)cc1`, the Potency was inconclusive: 28.2 µM [inhibitor, single point].
With `COc1cccc(-c2cnc(NCc3ccccc3Cl)n2C)c1` the Potency was inconclusive: 3.98 µM [inhibitor, partial curve, poor fit].
